Target: Recombinant human CD28 (human) (UniProt P10747)
Test: ELISA, plate coated with recombinant human CD28, anti-human HRP detection

| EC50 [µg/mL] | Binder |
| --- | --- |
| 13.2 | Fusion protein BY24.12 (Fc fusion) VIHVTKEVKEVATLSCGHNVSVEELAQTRIYWQKEKKMVLTMMSGDMNIWPEYKNRTIFDITNNLSIVILALRPSDEGTYECVVLKYEKDAFKREHLAEVTLSVKADFPTPSDKRV[human IgG4 Fc with S228P (EU numbers) left out here]GGGSGGGGSGGGGSASDTGRPFVEMYSEIPEIIHMTEGRELVIPCRVTSPNITVTLKKFPLDTLIPDGKRIIWDSRKGFIISNATYKEIGLLTCEATVNGHLYKTNYLTHRQTNTIIDVVLSPSHGIELSVGEKLVLNCTARTELNVGIDFNWEYPSSKHQHKKLVNRDLKTQSGSEMKKFLSTLTIDGVTRSDQGLYTCAASSGLMTKKNSTFVRVHE |
| 24.3 | Fusion protein BY31.19 (Fc fusion) VIHVTKEVKEVATLSCGHNVSVEELAQTRIYWQKEKKMVLTMMSGDMNIWPEYKNRTIFDITNNLSIVILALRPSDEGTYECVVLKYEKDAFKREHLAEVTLSVKADFPTPSDKRV[human IgG4 Fc with S228P (EU numbers) left out here] |
| 35.1 | Fusion protein BY24.5 (protein) light: DIQMTQSPSSVSASIGDRVTITCRASQGIDNWLGWYQQKPGKAPKLLIYDASNLDTGVPSRFSGSGSGTYFTLTISSLQAEDFAVYFCQQAKAFPPTFGGGTKVEIKRTVAAPSVFIFPPSDEQLKSGTASVVCLLNNFYPREAKVQWKVDNALQSGNSQESVTEQDSKDSTYSLSSTLTLSKADYEKHKVYACEVTHQGLSSPVTKSFNRGEC heavy: EVQLVQSGGGLVKPGGSLRLSCAASGFTFSSYSMNWVRQAPGKGLEWVSSISSSSSYIYYADSVKGRFTISRDNAKNSLYLQMNSLRAEDTAVYYCARVTDAFDIWGQGTLVTVSSASTKGPSVFPLAPCSRSTSESTAALGCLVKDYFPEPVTVSWNSGALTSGVHTFPAVLQSSGLYSLSSVVTVPSSSLGTKTYTCNVDHKPSNTKVDKRV[human IgG4 Fc with S228P (EU numbers) left out here]GGGSGGGGSGGGGSVIHVTKEVKEVATLSCGHNVSVEELAQTRIYWQKEKKMVLTMMSGDMNIWPEYKNRTIFDITNNLSIVILALRPSDEGTYECVVLKYEKDAFKREHLAEVTLSVKADFPTPS |

Reference: patent US20220106389A1
